Here are results for 13 molecules from US20230322822A1, “ARYL PHOSPHOROUS OXIDE COMPOUNDS AND USE THEREOF” (Chengdu Di'ao Jiuhong Pharmaceutical Factory, priority 2020, published 2023).

Each structure is given as a SMILES string.

The nature of data set [1]: Single administration toxicity test, orally intragastric administration to SD rats. It is filed as in vivo. To be noted: for Mortality Female: 5 female rats; for Mortality Female / Mortality Male / Mortality/total number of animals: day 15; for Mortality Male: 5 male rats. The method, then: 8-week-old SD rats, 10 per group, male and female half, were purchased from Beijing SiPeiFu. The rats were tested after 3 days of acclimatization in this laboratory. The oral administration was performed by intragastric administration with an administration volume of 10 mL/kg. The rats were fasted and not forbidden to drink water for 17 hours before administration. The rats in the control group were given an equal volume of solvent via oral gavage. The feeding was resumed about 2 hours after the end of the administration.
Observations were made twice daily after the administration. The day of first administration was defined as day 1 of the test. The test was carried out for 14 consecutive days, and ended in day 15.

For data set [2], the system named is BaF3 EGFR-DTC(C797S/T790M/Del19) cells. Briefly: In-vivo pharmacodynamic study, transplanted tumor model of BaF3 EGFR-DTC(C797S/T790M/Del19) cells in nude mice. Also on record: species or system BALB/c nude mice. The settings on record: for Effect on tumor growth (in words): compound 2 and Brigatinib 25 and 50 mg/kg, compound 33 25 mg/kg. The method, then:
The models used in this test were subcutaneous transplanted tumor models of engineered BaF3 EGFR-DTC(C797S/T790M/Del19) cells in BALB/c nude mice. The engineered BaF3 cells were cultured in vitro suspension. […] Passages were treated twice a week. When the cell number reached requirement, the cells were collected, counted and inoculated. 0.2 mL (10^6) cells (added with matrigel, 1:1 by volume) were subcutaneously inoculated in the right back of each mouse, and divided into groups for administration with 6 mice per group when the mean tumor volume reached 109 mm^3.
Administration mode and frequency: Oral gavage was carried out with an administration volume of 10 mL/kg, and the model group was administered with the same volume of solvent. The administration was once per day and continuously carried out for 14 days.
General conditions such as spirit, activity, food intake and the like of the mice were observed every day, and the weight was measured thrice every week; the short diameter (a) and the long diameter (b) of each mouse tumor were measured thrice a week with a vernier caliper, and the tumor volume was calculated according to the formula (a^2×b)/2. The Relative Tumor Volume (RTV) was calculated from the measured tumor volume, wherein RTV=Vt/V0, wherein V0 was the tumor volume at random grouping (i.e., d0) and Vt was the tumor volume at each measurement (i.e., dn). The relative tumor proliferation rate of the evaluation index of the anti-tumor activity was calculated according to the following formula: relative tumor proliferation rate T/C (%): […]
(Note: TRTV: treatment group RTV; CRTV: model control group RTV. According to the therapeutic effect evaluation standard in the Technical Guidelines for Non-clinical Research of Cytotoxic Anti-tumor Drugs Issued by National Medical Products Administration of China, the value (T/C %≤40%) was effective).

In data set [3] the test system is Ba/F3 cells expressing EGFR-C797S/T790M/Del19. The data set is described as follows: Cell anti-proliferation test 1 (CTG), BaF3 EGFR-C797S/T790M/Del19. The settings on record: Mus musculus, BaF3, 72 h, read-out: EGFR-C797S/T790M/Del19 IC50.
Data set [4] relates to Ba/F3 cells expressing EGFR-T790M/Del19. Briefly: Cell anti-proliferation test 1 (CTG), BaF3 EGFR-T790M/Del19. The settings on record: Mus musculus, BaF3, 72 h, read-out: EGFR-T790M/Del19 IC50.
Data set [5] deals with Ba/F3 cells expressing EGFR-C797S/T790M/L858R. The data set is described as follows: Cell anti-proliferation test 1 (CTG), BaF3 EGFR-C797S/T790M/L858R. The settings on record: Mus musculus, BaF3, 72 h, read-out: EGFR-C797S/T790M/L858R IC50.
In data set [6] the test system is Ba/F3 cells expressing EGFR-WT. Briefly: Cell anti-proliferation test 1 (CTG), BaF3 EGFR-WT. The settings on record: Mus musculus, BaF3, 72 h, read-out: EGFR-WT IC50.
Data set [7] relates to Ba/F3 cells expressing EGFR-T790M/L858R. Briefly: Cell anti-proliferation test 1 (CTG), BaF3 EGFR-T790M/L858R. The settings on record: Mus musculus, BaF3, 72 h, read-out: EGFR-T790M/L858R IC50.
Another data set relates to Ba/F3-EML-4-ALK-L1196M. Briefly: Cell anti-proliferation test 3 (CTG), Ba/F3-EML-4-ALK-L1196M. It is filed as cell-based. The settings on record: Ba/F3 EML4-ALK-L1196M, 72 h, BaF3 cells, Day 3.
Another data set relates to Ba/F3-EML-4-ALK-WT. Briefly: Cell anti-proliferation test 3 (CTG), Ba/F3-EML-4-ALK-WT. It is filed as cell-based. The settings on record: Mus musculus, 72 h, BaF3 cells, Day 3.
Setting [8] is: 25 mg/kg oral gavage once per day.
[9] abbreviates: 25 mg/kg oral gavage once per day, Day 3.
Where [10] appears, read: 25 mg/kg oral gavage once per day, Day 5.
Where [11] appears, read: 25 mg/kg oral gavage once per day, Day 7.
Setting [12] is: 25 mg/kg oral gavage once per day, Day 10.
The mark [13] stands for this setting: 25 mg/kg oral gavage once per day, Day 12.
Where [14] appears, read: 50 mg/kg oral gavage once per day.

For `COc1cc(N2CCC(N3CCN(C)CC3)CC2)ccc1Nc1ncc(Cl)c(Nc2ccccc2P(C)(C)=O)n1` [Brigatinib, reference compound], the “Mortality Female” value in data set [1] (25 mg/kg single dose) came to 0; in [1] (75 mg/kg single dose), 1; in data set [1] (100 mg/kg single dose) it was 3; in data set [1] (125 mg/kg single dose), 4; in [1] (150 mg/kg single dose), 5; in data set [1] (200 mg/kg single dose), 5. The “Mortality Male” value in data set [1] (25 mg/kg single dose) was 0; in data set [1] (75 mg/kg single dose) it was 1; in data set [1] (100 mg/kg single dose), 1; in data set [1] (125 mg/kg single dose), 2; in [1] (150 mg/kg single dose) it was 4; in data set [1] (200 mg/kg single dose), 5. Further, the “Mortality/total number of animals” value in [1] (25 mg/kg single dose) is recorded as 0/10; in data set [1] (75 mg/kg single dose) it was 2/10; in data set [1] (100 mg/kg single dose), 4/10; in data set [1] (125 mg/kg single dose), 6/10; in data set [1] (150 mg/kg single dose), 9/10; in [1] (200 mg/kg single dose), 10/10. Moreover, the maximum tolerated dose (MTD) at 14 days in data set [1] (both sexes, Sprague-Dawley, rat, in vivo, po, SD rats, single orally intragastric administration, read-out: Maximum Tolerated Dose (MTD)) is below 75 mg/kg. Also, the “Tumor volume Day 0” value in [2] (setting [8]) and in [2] (setting [14]) was 109 mm^3 in each case. The “Tumor volume Day 3” value is 139 mm^3 in data set [2] (setting [9]) and 115 mm^3 in [2] (50 mg/kg oral gavage once per day, Day 3). Also, the “Tumor volume Day 5” value is recorded as 152 mm^3 in data set [2] (setting [10]) and 121 mm^3 in [2] (50 mg/kg oral gavage once per day, Day 5). Further, the “Tumor volume Day 7” value turned out to be 276 mm^3 in [2] (setting [11]) and 146 mm^3 in data set [2] (50 mg/kg oral gavage once per day, Day 7). Moreover, the “Tumor volume Day 10” value in [2] (setting [12]) came out at 476 mm^3; in data set [2] (50 mg/kg oral gavage once per day, Day 10), 220 mm^3. In addition, the “Tumor volume Day 12” value in data set [2] (setting [13]) turned out to be 755 mm^3; in data set [2] (50 mg/kg oral gavage once per day, Day 12), 378 mm^3. Also, the “Tumor volume Day 14” value in data set [2] (setting [8]) amounted to 1046 mm^3; in data set [2] (setting [14]) it was 509 mm^3. Further, the “Effect on tumor growth (in words)” value in data set [2] is “did not significantly inhibit the tumor growth”.
`COc1cc(N2CCC(N3CCN(C)CC3)CC2)c(C)cc1Nc1ncc(C)c(Nc2ccc(C)cc2P(C)(C)=O)n1` [Compound 4]: the IC50 in [3] came out at 50.5 nM; in [4], 43.8 nM; in data set [5], 204 nM; in [6], 815 nM.
Turning to `COc1cc(N2CCC(N3CCN(C)CC3)CC2)c(C(C)C)cc1Nc1ncc(Br)c(Nc2ccc(C)cc2P(C)(C)=O)n1` [Compound 13], the IC50 in [3] is 36.4 nM; in [4], 29 nM; in data set [5], 168 nM; in [6] it was 691 nM.
On to `Cc1ccc(Nc2nc(Nc3cc(C)c(N4CCC(N5CCN(C)CC5)CC4)cc3OCC(F)(F)F)ncc2Br)c(P(C)(C)=O)c1` [Compound 23], for which the IC50 worked out at 34.1 nM in data set [3], 54.3 nM in [4], 129 nM in data set [5] and 1610 nM in [6].
For the molecule `C=CC(=O)Nc1cc(Nc2ncc(Cl)c(Nc3ccc(C)cc3P(C)(C)=O)n2)c(OC)cc1N1CCC(N2CCN(C)CC2)CC1` [Compound 25], in [4], the IC50 was determined as 34.2 nM.
As to `COc1cc(N2CCOCC2)c(C)cc1Nc1ncc(Br)c(Nc2ccc(C)cc2P(C)(C)=O)n1` [Compound 28], the IC50 in data set [3] turned out to be 35.5 nM; in [4] it was 50.6 nM; in data set [5], 134 nM; in data set [6] it was 1210 nM.
`COc1cc(N2CCN(C)CC2)c(C)cc1Nc1ncc(Br)c(Nc2ccc(C)cc2P(C)(C)=O)n1` [Compound 29]: the IC50 in data set [3] was 32.2 nM; in data set [4] it was 40.5 nM; in [7] it was 105 nM; with Ba/F3-EML-4-ALK-L1196M it was 15.2 nM; in data set [5], 125 nM; in [6], 1490 nM. Besides, in the data set with Ba/F3-EML-4-ALK-WT, the IC50 is 8.7 nM.
Turning to `COc1cc(N2CCC(N3CCOCC3)CC2)c(C)cc1Nc1ncc(Br)c(Nc2ccc(C)cc2P(C)(C)=O)n1` [Compound 30], the IC50 in data set [3] came out at 25.8 nM; in [4] it was 29.5 nM; in [5] it was 62.9 nM; in data set [6], 1650 nM.
With `COc1cc(N2CCC(N3CCN(C)CC3)CC2)c(C)cc1Nc1ncc(Br)c(Nc2ccc(Cl)cc2P(C)(C)=O)n1` [Compound 33], the IC50 in data set [3] was determined as 22.9 nM. In addition, the IC50 in data set [4] came to 25.8 nM. In [7], the IC50 came to 24.7 nM. Moreover, the IC50 with Ba/F3-EML-4-ALK-L1196M came to 16.2 nM. Further, the IC50 in [5] is 90.7 nM. Moreover, the IC50 in data set [6] came to 966 nM. In addition, the IC50 in the data set with Ba/F3-EML-4-ALK-WT worked out at 10.7 nM. Moreover, in data set [2] (setting [8]), the “Tumor volume Day 0” value was found to be 109 mm^3 and the “Tumor volume Day 14” value worked out at 16 mm^3. Further, in [2] (setting [9]), the “Relative tumor proliferation rate T/C Day 3” value turned out to be 52.56% and the “Tumor volume Day 3” value worked out at 75 mm^3. Also, in [2] (setting [10]), the “Relative tumor proliferation rate T/C Day 5” value is given as 29.21% and the “Tumor volume Day 5” value is recorded as 52 mm^3. Further, in data set [2] (setting [11]), the “Relative tumor proliferation rate T/C Day 7” value is 10.32% and the “Tumor volume Day 7” value was found to be 39 mm^3. In addition, in data set [2] (setting [12]), the “Relative tumor proliferation rate T/C Day 10” value is 4.84% and the “Tumor volume Day 10” value stood at 27 mm^3. For the same molecule, in [2] (setting [13]), the “Relative tumor proliferation rate T/C Day 12” value stood at 2.56% and the “Tumor volume Day 12” value is 21 mm^3. Moreover, in [2], the “Effect on tumor growth (in words)” value was “obviously inhibit the tumor growth”.
Turning to `COc1cc(N2CCC(N3CCN(C)CC3)CC2)c(Cl)cc1Nc1ncc(Br)c(Nc2ccc(F)cc2P(C)(C)=O)n1` [Compound 35], the IC50 in data set [3] worked out at 19.4 nM; in data set [4] it was 23.4 nM; in data set [7] it was 46.1 nM; in the data set on Ba/F3-EML-4-ALK-L1196M it was 14.7 nM; in data set [5], 127 nM; in data set [6], 2920 nM. In the data set on Ba/F3-EML-4-ALK-WT, this molecule yielded an IC50 of 18.2 nM.
On to `COc1cc(N2CCC(N3CCN(C)CC3)CC2)c(C)cc1Nc1ncc(Br)c(Nc2ccc(C(C)C)cc2P(C)(C)=O)n1` [Compound 36], for which the IC50 in data set [3] worked out at 45.1 nM; in [4], 48.5 nM; in data set [7] it was 32.1 nM; in data set [5] it was 95.9 nM; in data set [6], 2600 nM.
For `CCc1cc(Nc2ncc(Br)c(Nc3ccc(C(C)C)cc3P(C)(C)=O)n2)c(OC)cc1N1CCC(N2CCN(C)CC2)CC1` [Compound 37], the IC50 in data set [3] stood at 87 nM; in data set [4], 41 nM; in [7] it was 18.9 nM; in data set [5] it was 96.8 nM; in [6] it was 4770 nM.
As for `COc1cc(N2CCC(N3CCN(C)CC3)CC2)c(Cl)cc1Nc1ncc(Br)c(Nc2ccc(Cl)cc2P(C)(C)=O)n1` [Compound 38], the IC50 in [4] was found to be 26.3 nM.
